Measured values published in PMC9574860, “Chemical Toolkit for PARK7: Potent, Selective, and High-Throughput” (Journal of Medicinal Chemistry, 2022).
Hit rate of the full screen: of about 7,900 compounds, about 400 (5.1%) showed an effect of 50% or more. This is one part of the list.

Target: Parkinson's disease protein 7 (PARK7/DJ1) (human, UniProt Q99497)
Test: primary screen, percent inhibition; read as competition with a fluorescent probe by fluorescence polarization; higher = more effect of the substance
Settings: 100 µM
Protocol: The screen was conducted using the conditions as described above in 1536-well plates (Corning 3724) with a reaction volume of 8 μL per well. The compound library containing 7887 covalent fragments was purchased at Enamine Ltd. and received as 100 mM DMSO stocks in 384 well LDV Echo plates (Labcyte LP-0200). Stock solutions of 0.26 μM PARK7 and 80 nM JYQ-107 were prepared. Using a Labcyte Echo550 acoustic dispenser, 8 nL of the DMSO stock solution of the library compounds was transferred from the source plates into the empty 1536-well screening plates to obtain a 100 μM final compound concentration. Next, PARK7 (6 μL, final concentration 0.2 μM) was dispensed using a Biotek MultiflowFX liquid dispenser and incubated for 2 h, followed by dispensing the probe JYQ-107 (2 μL, final concentration 20 nM). After 2 h incubation, the FP signal was recorded on a BMG Labtech PHERAstar plate reader (λex/em 480/520 nm). The relative loss of FP signal compared with reference controls was used to calculate the remaining enzyme activity.

Parkinson's disease protein 7 (PARK7/DJ1), sequence (Q99497 whole entry, looked up): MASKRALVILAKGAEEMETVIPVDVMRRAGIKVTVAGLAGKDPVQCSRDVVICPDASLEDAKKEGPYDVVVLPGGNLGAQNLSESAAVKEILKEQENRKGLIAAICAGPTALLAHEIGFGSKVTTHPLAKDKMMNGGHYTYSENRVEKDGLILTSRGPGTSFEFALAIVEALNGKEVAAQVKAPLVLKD

Row | SMILES | Inhibition % [%]
1 | COc1ccc(S(=O)(=O)n2ccc(C)n2)cc1 | 7.42
2 | COCC(C)n1c(C)cc(C=C(C#N)C(=O)O)c1C (stereo not drawn) | 2.37
3 | COc1ccc(NC(=O)CCl)cc1S(=O)(=O)N(C)C | 9.41
4 | C=CC(=O)N1CCc2cccc(F)c2C1C (stereo not drawn) | 3.47
5 | Cc1cc(C#N)nc2ccccc12 | 10.2
6 | CN(c1cnn(C)c1)S(=O)(=O)c1ccccc1S(=O)(=O)F | 98.1
7 | O=C1CN=C(S)N1Cc1ccccc1Cl | 7.62
8 | COc1cccc(C(=O)N2CCCCC2C2OCCO2)c1 (stereo not drawn) | 12.5
9 | C=CC(=O)NC1CCN(c2ccccc2OC)C1 (stereo not drawn) | 13.3
10 | CCc1nccn1S(=O)(=O)c1ccc(C)c(C)c1 | 3.48
11 | C=CC(=O)NC1CC(SC)C1 (stereo not drawn) | 3.62
12 | Cc1ccc(F)c(N(C#N)CCn2cncn2)c1 | 24.8
13 | C=CC(=O)Nc1nc2ccc(NC(C)=O)cc2s1 | 7.52
14 | O=C(C=CC1=CCCC1)N1CCCC(N2CCNC2=O)C1 (stereo not drawn) | 28
15 | COc1c(C)cc(S(=O)(=O)n2nc(C)cc2C)c(C)c1C | 7.42
16 | N#Cc1ncn(CC(=O)Nc2cc(Cl)ccc2Cl)n1 | 5.71
17 | Cc1ccsc1CNC(=O)CCl | -0.856
18 | Cl.Cn1nccc1C=CC(=O)N1CCCNCC1 | 8.67
19 | C=CC(=O)N1CCOC(c2nc(C)cs2)C1 (stereo not drawn) | 6.6
20 | Cc1n[nH]c(=O)c2c(NC(=O)CCl)oc(C)c12 | 30
21 | Cc1ncc(CN(C)C(=O)c2cccnc2S)s1 | 6.27

Row | SMILES | Inhibition % [%]
22 | O=C(O)c1ccc2c(c1)B(O)OC2 | 6.29
23 | C=CC(=O)N1CCC(c2ccc(OC)cn2)CC1 | 3.08
24 | COc1ccc(NC(C)=O)cc1NC(=O)CCl | 10.5
25 | Cn1cc(C=C(C#N)C(N)=O)c(-c2ccccc2Cl)n1 | 8.92
26 | C=CC(=O)N1CCOc2ccc(F)cc2C1 | 11.2
27 | C=CC(=O)Nc1ccccc1CN1CCOCC1 | 8.41
28 | C=CCn1c(S)nc2cc(C(=O)O)ccc2c1=O | 4.61
29 | Cc1nc(C=CC(=O)N2CCNCC2C)cs1 (stereo not drawn) | -1.13
30 | C=CC(=O)NC1CCN(c2ccc(Cl)c(F)c2)C1 (stereo not drawn) | 7.63
31 | CC1(C)OB(c2cc(Br)ccc2F)OC1(C)C | 18.2
32 | C=CC(=O)N1CCC(c2ccc(C)nc2)CC1 | 4.08
33 | Cl.O=C(CCl)Nc1ccc(N2CCCCC2)cc1 | 89.3
34 | CC(C)(C)c1ccc(NC(=O)Cn2cnc(C#N)n2)cc1 | 25.6
35 | CC1(C)OB(c2cnn(-c3ccccn3)c2)OC1(C)C | 24.7
36 | N#CN(Cc1ccc(C(N)=O)cc1)c1ccc(F)cc1 | 3.09
37 | O=S(=O)(F)c1ccc2ccccc2n1 | 69.3
38 | O=c1oc(-c2ccccc2)nn1CN1CCCCC1 | 3.5
39 | C=CC(=O)Nc1ccc(N2CCN(C)CC2)nc1 | 15
40 | CCc1nccn1S(=O)(=O)c1cc(C)c(OC)cc1C | 7.23
41 | C=CC(=O)Nc1ccc2c(c1)COC2 | 11.5
42 | COc1cccc(C2(C)NC(=O)N(NC(=O)CCl)C2=O)c1 (stereo not drawn) | 2.08

Row | SMILES | Inhibition % [%]
43 | Cl.ClCCN1CCCCC1 | 2.77
44 | CC1CNCCN1C(=O)C=Cc1ccnn1C.O=C(O)C(F)(F)F (stereo not drawn) | 3.18
45 | CC1CC1c1ccc(C=CC(N)=O)o1 (stereo not drawn) | 12.7
46 | O=C(CCl)NCCc1cccc2ccccc12 | 24.9
47 | C=CC(=O)N1CCN(c2cccnc2)C(=O)C1 | 7.51
48 | C=CC(=O)NCCc1cncnc1 | 10.1
49 | CCN(CC)C(=O)CNc1ccc(Cl)c(C#N)n1 | 9.41
50 | CC1(C)OB(c2cnc(N3CCC(CO)C3)nc2)OC1(C)C (stereo not drawn) | 10.6
51 | N#Cc1ncc(C(=O)O)s1 | 2.28
52 | CN(C)C(=O)c1cncc(B2OC(C)(C)C(C)(C)O2)c1 | 4.96
53 | CC(C(=O)N1CCCC2CCCCC21)N1C(=O)CCC1=O (stereo not drawn) | 9.57
54 | C=CC(=O)NC1CS(=O)(=O)C1 | 25.7
55 | O=c1onc(-c2cccnc2)n1Cc1cc(F)cc(F)c1 | 16.6
56 | C=CC(=O)N1C[C@@H](CO)[C@H](c2ccsc2)C1 | 12.4
57 | Cc1ccc(S)nn1 | 28.1
58 | COc1ccc(S(=O)(=O)n2cnc(C)c2)c(C)c1C | 7.34
59 | O=C1NC2CCCCCCC12 (stereo not drawn) | 5.28
60 | C=CC(=O)NCCc1ccc2c(c1)COC2 | 9.48
61 | O=C1OCCC1Sc1nccc(C(F)(F)F)n1 (stereo not drawn) | 9.47
62 | CC1(C)OB(c2ccc(N=S(C)(C)=O)cc2)OC1(C)C | 5.97
63 | NC(=O)C1CCCN1S(=O)(=O)C=Cc1ccccc1Cl (stereo not drawn) | -0.649
